In the supplement of paper PMC12217912:
This is one part of the list. Sequences were assembled here from the parent chain. Values near 0.05 are background.

B1: TEV protease; numbered along this chain (parent)
chain: MGESLFKGPRDYNPISSSICHLTNESDGHTTSLYGIGFGPFIITNKHLFRRNNGTLVVQSLHGVFKVKDTTTLQQHLVDGRDMIIIRMPKDFPPFPQKLKFREPQREERICLVTTNFQTKSMSSMVSDTSCTFPSGDGIFWKHWIQTKDGQCGSPLVSTRDGFIVGIHSASNFTNTNNYFTSVPKNFMELLTNQEAQQWVSGWRLNADSVLWGGHKVFMVKPEEPFQPVKEATQL

Variants of: B1
Experiment: raw area under fraction-flipped curve 0-4 h after induction (AUC4h, not background-subtracted), DNA-recorder readout of cleavage of the substrate (dimensionless); higher = more cleavage of the substrate by the protease variant
Settings: temperature: 34 °C; time window: 0-4 h after rhamnose induction
Experimental: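 In vivo DNA recorder in E. coli TOP10(DE3) ΔrhaA at 34 °C. Each TEVp single-site mutant (parent TEVp 0) is paired with a single-site variant of the 7-mer TEVs (canonical ENLYFQ|S). The substrate sits between flexible linkers in a Bxb1-sfGFP-TEVs-SsrA fusion, so cleavage stabilises Bxb1 and speeds flipping of a recombination array, read by NGS. The value is the raw area under the fraction-flipped curve over 0-4 h after rhamnose induction (AUC4h), with ≥20 reads per time point. It is not background-subtracted; inactive controls average about 0.047.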
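Further: Bxb1 expression induced with 0.2% (w/v) L-rhamnose at OD600 near 0.5, cultures sampled hourly, flipped fraction per protease–substrate barcode pair counted by paired-end Illumina sequencing.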

Variant | area with substrate ENAYFQS | area with substrate ENCYFQS | area with substrate ENDYFQS | area with substrate ENEYFQS | area with substrate ENFYFQS | area with substrate ENHYFQS | area with substrate ENIYFQS | area with substrate ENMYFQS | area with substrate ENNYFQS | area with substrate ENPYFQS | area with substrate ENQYFQS | area with substrate ENRYFQS | area with substrate ENSYFQS | area with substrate ENTYFQS | area with substrate ENVYFQS | area with substrate ENWYFQS | area with substrate ENYYFQS | area with substrate ENGYFQS | area with substrate ENKYFQS
D69S | 0.0694 | 0.0639 | 0.0634 | 0.077 | 0.0514 | 0.0538 | 0.0843 | 0.0687 | 0.0579 | 0.0503 | 0.0607 | 0.0463 | 0.0433 | 0.059 | 0.0537 | 0.0639 | 0.0654 |  | 
T70L | 0.0649 | 0.0702 | 0.0591 |  | 0.0648 | 0.0588 | 0.0808 | 0.071 | 0.0598 | 0.0619 | 0.0483 | 0.038 | 0.0746 | 0.0568 | 0.0235 | 0.0607 | 0.0509 | 0.0618 | 0.077
T70R | 0.0571 | 0.059 | 0.0528 | 0.062 | 0.0663 | 0.0613 | 0.0822 |  | 0.0499 |  | 0.0527 | 0.0541 |  | 0.0526 |  |  |  | 0.0534 | 
T71V | 0.0635 | 0.0612 | 0.0483 | 0.0679 | 0.062 | 0.0503 | 0.0976 |  | 0.0649 |  | 0.0688 | 0.0594 | 0.0648 |  |  | 0.0147 | 0.0599 | 0.0746 | 0.0525
L73E | 0.0596 |  | 0.0394 |  | 0.0548 |  |  | 0.0205 | 0.0385 |  |  |  | 0.0582 |  |  |  |  | 0.0623 | 
L73R | 0.061 |  |  | 0.0445 |  | 0.0446 | 0.0539 |  | 0.0586 | 0.0419 | 0.0566 | 0.0452 |  | 0.0583 | 0.0373 | 0.0525 |  |  | 0.0522
Q75A | 0.022 |  | 0.0506 | 0.0628 | 0.0547 |  |  | 0.0874 |  | 0.0572 | 0.0497 | 0.0624 | 0.0575 | 0.0695 | 0.0871 |  |  |  | 
Q75E | 0.0798 | 0.0589 | 0.0594 | 0.0583 | 0.0719 | 0.061 |  |  | 0.064 |  |  | 0.0635 | 0.064 |  | 0.0679 |  |  |  | 
Q75W | 0.0421 | 0.0598 | 0.0524 | 0.0554 | 0.0465 | 0.0574 | 0.0666 |  |  | 0.0596 | 0.0349 |  | 0.0407 | 0.0653 | 0.0577 | 0.0112 | 0.0552 |  | 0.0494
H76L | 0.0674 |  | 0.0497 | 0.0528 | 0.0773 | 0.0573 |  |  |  | 0.0739 | 0.0654 | 0.0656 |  | 0.07 | 0.0683 |  |  | 0.0575 | 0.0499
H76M | 0.0548 |  | 0.0619 |  | 0.0702 |  |  |  |  |  |  |  | 0.0624 | 0.0651 | 0.0794 |  |  |  | 
H76W | 0.104 | 0.0841 | 0.073 | 0.0735 | 0.0685 | 0.0632 |  | 0.05 |  | 0.056 | 0.0474 | 0.0483 | 0.051 | 0.0703 | 0.0674 |  | 0.065 |  | 0.0507
D79F | 0.0489 |  |  | 0.0429 | 0.0643 |  | 0.0935 | 0.0657 |  |  | 0.0566 | 0.0643 |  | 0.0481 | 0.0731 |  |  |  | 
D79K | 0.0613 | 0.0502 |  | 0.0604 | 0.0724 |  | 0.101 | 0.0595 | 0.0705 | 0.0364 | 0.0626 | 0.0604 | 0.0637 | 0.0775 |  |  | 0.0568 | 0.0671 | 0.063
D79M | 0.062 |  | 0.0501 | 0.0484 |  |  | 0.092 |  |  |  | 0.0603 | 0.0345 | 0.0591 | 0.0657 | 0.0699 | 0.0966 |  | 0.0653 | 
D79S | 0.0655 |  |  | 0.0582 | 0.0549 | 0.0895 |  | 0.101 | 0.0725 |  | 0.0615 | 0.0509 | 0.0611 | 0.0569 | 0.0713 | 0.0538 | 0.0697 |  | 
D79T | 0.0551 |  | 0.0579 | 0.0535 | 0.0673 | 0.0514 |  |  |  |  |  | 0.0563 | 0.0656 |  | 0.0816 |  | 0.0448 |  | 
D79W | 0.0737 | 0.0551 | 0.0618 | 0.0633 | 0.0627 | 0.0528 | 0.0962 |  | 0.0433 |  | 0.0681 |  | 0.0675 | 0.0686 | 0.0775 | 0.0563 |  |  | 0.0816
D82L | 0.0458 | 0.0556 | 0.0433 | 0.0634 | 0.0504 |  |  |  |  | 0.054 | 0.0486 | 0.0589 |  |  |  |  |  | 0.0554 | 0.0534
I84A | 0.0611 |  | 0.0711 | 0.0623 | 0.0505 | 0.0535 |  |  | 0.0614 |  | 0.0602 |  | 0.0659 |  |  |  |  |  | 
I84S | 0.0512 | 0.0695 | 0.0544 | 0.0532 | 0.0561 |  | 0.0668 | 0.0584 | 0.0622 | 0.0341 | 0.0574 | 0.0449 | 0.0444 | 0.0562 | 0.0577 |  |  | 0.0496 | 
I85T | 0.0739 | 0.0592 | 0.0602 | 0.0335 | 0.072 |  | 0.0602 |  | 0.0622 | 0.0582 |  | 0.0532 |  | 0.0439 | 0.0795 |  |  | 0.0637 | 
I85Y | 0.0541 |  | 0.079 | 0.0653 | 0.0704 | 0.0563 | 0.0559 | 0.0543 | 0.0655 | 0.0566 | 0.0426 |  | 0.0633 | 0.0539 | 0.051 |  | 0.0646 | 0.0609 | 0.0635
K90G | 0.0551 | 0.0828 | 0.0664 | 0.0672 |  | 0.0469 |  | 0.0921 |  | 0.0659 | 0.0552 | 0.0504 | 0.0635 | 0.0808 | 0.0867 | 0.0589 |  |  | 
K90H | 0.063 | 0.0588 | 0.0946 | 0.0628 | 0.0744 | 0.0671 | 0.104 | 0.0681 |  | 0.0564 |  | 0.0691 | 0.0597 |  | 0.109 | 0.056 |  | 0.0798 | 0.0664
K90V | 0.0683 | 0.0642 | 0.0733 | 0.0633 |  |  |  | 0.0704 | 0.0732 | 0.0622 | 0.0639 |  | 0.0611 |  |  |  |  | 0.0638 | 
P94T | 0.0747 |  | 0.0623 |  |  |  | 0.0939 |  | 0.0651 |  | 0.0585 |  | 0.051 | 0.0644 | 0.0889 | 0.0473 |  | 0.0699 | 0.0699
P94W | 0.0668 |  | 0.0634 | 0.0548 | 0.0645 | 0.052 | 0.0803 |  | 0.0665 | 0.0512 | 0.14 | 0.0627 | 0.0406 | 0.0735 | 0.0819 | 0.0634 | 0.07 | 0.056 | 
